Assay results as given in PMC11949107, “Polyunsaturated fatty acids and their endocannabinoid-related metabolites activity at human TRPV1 and TRPA1 ion channels expressed in HEK-293 cells” (PeerJ, 2025).
“And” between values parts separate entries of the source, which are not always exact repeats. Equal entries are not always repeated. The source gives many values for each of these; only a part stands here.

Columns and labels:
Assay type in all cases: cell-based
[1] = target: T1, human TRPV1 (Homo sapiens, UniProt Q8NER1); assay: Calcium 5 dye [Ca]i assay in HEK-293 Flp-In T-REx cells expressing TRPV1 (agonist response)
T1 construct: Life Technologies (cells); host or cells: Flp-In T-REx HEK-293
Procedure: (§1) The cells were incubated in a 5% CO2 humidified atmosphere at 37 °C. Upon reaching approximately 90% confluence in 75 cm^2 flasks, they were trypsinized and transferred to poly-D-lysine coated 96-well plates (Corning, Castle Hill, NSW, Australia) in L-15 medium supplemented with 1% FBS, 100 U penicillin and 100 µg streptomycin ml^−1 (1% P/S), and 15 mM glucose (80 µL volume per well). After an overnight incubation (maximum of 16 h) in humidified room air at 37 °C, TRPV1 and TRPA1 receptor expression was induced 4 h before experimentation by adding to each well 10 µL tetracycline solution to a final concentration of 1 µg ml^−1.
(§2) Intracellular calcium [Ca]i levels were assessed using the calcium 5 kit from Molecular Devices (# R8186, Sunnyvale, CA, USA) on a FlexStation 3 Microplate Reader (Molecular Devices, Sunnyvale, CA, USA). […] Probenecid (cat # 50027; Biotium) which helps to prevent expulsion of calcium indicator from the cells was added to a final concentration of 1.25 mM. 90 µL of the dye were loaded into each well of the plate and incubated for 1 h before reading in the FlexStation 3 at 37 °C. Fluorescence was recorded every 2 s (λ excitation = 485 nm, λ emission = 525 nm) for 5 min. After 1 min of baseline recording, 20 µL of the drug, dissolved in HBSS with 1% dimethyl sulfoxide (DMSO) (cat # D2650; Sigma-Aldrich, Melbourne, Australia) was added (final DMSO concentration was 0.1% in well).
(§3) The response to agonists was expressed as a percentage change from the average baseline measurement taken for 60s before adding drug. Changes in fluorescence resulting from the addition of solvent were subtracted before normalization to baseline. Concentration–response curves (CRC), Emax and EC50 values were determined using a three-parameter logistic equation (GraphPad Prism, San Diego, CA, USA). […] Potencies were expressed as pEC50, which is the negative log of EC50 in moles per litre (Molar). Where appropriate, unpaired Student’s t-test were used to compare the responses of individual compounds in different conditions, while a one-way ANOVA followed by Dunnett’s multiple comparisons test was used to assess potential differences in responses elicited by a range of compounds. P < 0.05 was considered statistically significant.

[2] = target: T1, human TRPV1; assay: PMA (phorbol ester) potentiation of TRPV1 responses in HEK-293 TRPV1 cells; settings: sheet Figure 5(C)
Procedure: as §2
We initially determined the effect of PMA, another phorbol ester that is a protein kinase C activator ([Jiang & Fleet, 2012]) on HEK-293 TRPV1 expressing cells.
(A) Response of HEK-293 TRPV1 expressing cells for PMA at various concentration. […] Drugs were added for the duration of the bar; (D) The effects of PUFAs after potentiation of TRPV1 by PMA. […] Changes in [Ca]i are expressed as percentage of the pre-drug baseline, with the response to PMA alone at 5 min subtracted. The black circles represent the response of PUFAs without PMA pretreatment while the pink circles represent the response of PUFAs after PMA potentiation.

[3] = target: T2, human TRPA1 (Homo sapiens, UniProt O75762); assay: Calcium 5 dye [Ca]i assay in HEK-293 Flp-In T-REx cells expressing TRPA1 (agonist response); settings: sheet Figure 4, listed as CA
T2 construct: Life Technologies (cells); host or cells: Flp-In T-REx HEK-293
Procedure: as §1, §2, §3

T1 sequence (Q8NER1 whole entry): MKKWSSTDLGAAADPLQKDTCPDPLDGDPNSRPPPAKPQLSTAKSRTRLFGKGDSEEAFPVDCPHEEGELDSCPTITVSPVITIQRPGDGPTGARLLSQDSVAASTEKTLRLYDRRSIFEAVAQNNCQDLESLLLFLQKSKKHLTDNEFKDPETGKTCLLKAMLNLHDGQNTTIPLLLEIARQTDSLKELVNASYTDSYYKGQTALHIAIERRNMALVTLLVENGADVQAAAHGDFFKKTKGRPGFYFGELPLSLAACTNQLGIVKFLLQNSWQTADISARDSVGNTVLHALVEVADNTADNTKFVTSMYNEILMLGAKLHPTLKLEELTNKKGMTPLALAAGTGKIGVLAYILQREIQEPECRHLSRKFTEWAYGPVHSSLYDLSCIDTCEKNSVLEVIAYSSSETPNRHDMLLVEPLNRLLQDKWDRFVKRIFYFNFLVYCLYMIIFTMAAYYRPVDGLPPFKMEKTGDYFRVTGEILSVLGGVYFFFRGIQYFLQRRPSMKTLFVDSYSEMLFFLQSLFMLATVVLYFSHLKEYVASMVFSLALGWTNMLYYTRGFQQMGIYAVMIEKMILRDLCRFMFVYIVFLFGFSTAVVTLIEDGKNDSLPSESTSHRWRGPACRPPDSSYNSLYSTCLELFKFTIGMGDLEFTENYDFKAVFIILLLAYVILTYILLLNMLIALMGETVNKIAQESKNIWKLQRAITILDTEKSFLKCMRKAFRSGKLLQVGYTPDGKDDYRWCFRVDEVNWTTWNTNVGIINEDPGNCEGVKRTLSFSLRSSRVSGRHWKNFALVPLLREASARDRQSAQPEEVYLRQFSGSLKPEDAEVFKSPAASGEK
T2 sequence (O75762 whole entry): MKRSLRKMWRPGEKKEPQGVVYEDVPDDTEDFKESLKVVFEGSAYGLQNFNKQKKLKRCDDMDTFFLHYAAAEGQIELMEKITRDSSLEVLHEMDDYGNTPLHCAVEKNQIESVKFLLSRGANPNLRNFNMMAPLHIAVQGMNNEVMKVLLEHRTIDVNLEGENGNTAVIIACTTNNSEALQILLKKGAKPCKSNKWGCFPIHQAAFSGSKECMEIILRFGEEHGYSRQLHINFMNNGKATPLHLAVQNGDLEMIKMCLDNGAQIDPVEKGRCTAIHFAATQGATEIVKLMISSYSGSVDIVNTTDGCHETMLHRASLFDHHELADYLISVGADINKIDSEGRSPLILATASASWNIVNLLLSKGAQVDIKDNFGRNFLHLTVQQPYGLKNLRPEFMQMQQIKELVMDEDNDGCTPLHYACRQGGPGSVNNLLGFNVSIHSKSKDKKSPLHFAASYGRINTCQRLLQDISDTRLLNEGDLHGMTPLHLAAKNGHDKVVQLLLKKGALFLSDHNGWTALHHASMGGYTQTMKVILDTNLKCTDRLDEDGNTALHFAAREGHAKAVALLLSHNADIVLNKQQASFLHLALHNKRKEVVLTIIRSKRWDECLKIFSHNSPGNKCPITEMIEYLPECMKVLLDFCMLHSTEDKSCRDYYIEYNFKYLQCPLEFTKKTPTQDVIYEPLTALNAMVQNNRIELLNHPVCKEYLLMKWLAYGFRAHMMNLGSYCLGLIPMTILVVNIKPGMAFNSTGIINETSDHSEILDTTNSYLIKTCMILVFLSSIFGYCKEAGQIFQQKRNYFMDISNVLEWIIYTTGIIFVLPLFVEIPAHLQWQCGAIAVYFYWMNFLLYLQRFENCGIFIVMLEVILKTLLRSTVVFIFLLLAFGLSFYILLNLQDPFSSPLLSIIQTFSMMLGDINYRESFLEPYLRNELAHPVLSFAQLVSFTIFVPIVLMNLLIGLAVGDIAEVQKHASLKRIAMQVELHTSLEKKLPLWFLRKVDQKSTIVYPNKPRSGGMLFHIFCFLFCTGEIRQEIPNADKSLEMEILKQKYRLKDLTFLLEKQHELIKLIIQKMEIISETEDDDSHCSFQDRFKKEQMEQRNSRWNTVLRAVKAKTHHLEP

COc1cc(CNC(=O)CCCC/C=C/C(C)C)ccc1O [Capsaicin]
Change in Ca5 fluorescence, individual experiments (CRC raw data) ([1]; log concentration -6 (M)): 211.63 and 351.159 and 247.922 and 122.31 and 532.736 and 519.757 and 484.594 | Change in Ca5 fluorescence, individual experiments (CRC raw data) ([1]; log concentration -7 (M)): 149.785 and 483.821 and 461.679 and 83.1921 and 507.895 and 494.502 and 415.635 | Change in Ca5 fluorescence, individual experiments (CRC raw data) ([1]; log concentration -7.52288 (M)): 159.197 and 418.759 and 158.659 and 83.1944 and 476.755 and 450.661 and 349.079 | Change in Ca5 fluorescence, individual experiments (CRC raw data) ([1]; log concentration -8 (M)): 141.864 and 312.735 and 345.351 and 76.2098 and 368.076 and 267.016 and 319.246 | Change in Ca5 fluorescence, individual experiments (CRC raw data) ([1]; log concentration -8.52288 (M)): 127.399 and 12.2423 and 8.27 and 59.6746 and 9.776 and 29.1085 and 28.7976 | Change in Ca5 fluorescence, individual experiments (CRC raw data) ([1]; log concentration -9 (M)): 65.3455 and 10.8255 and 10.1388 and 35.8436 | [Ca]i response (change in fluorescence), individual replicates ([2]; Capsaicin alone, concentration -7 (log)): 537.437 and 458.607 and 326.132 and 548.068 and 557.729 and 564.127 and 584.567 and 101.61 and 533.123 and 540.05 and 540.902 | [Ca]i response (change in fluorescence), individual replicates ([2]; Capsaicin alone, concentration -7.52288 (log)): 378.009 and 497.618 and 498.208 and 264.188 and 524.034 and 489.52 and 526.489 and 517.673 | [Ca]i response (change in fluorescence), individual replicates ([2]; Capsaicin post-PMA, concentration -6.52288 (log)): 474.005 | [Ca]i response (change in fluorescence), individual replicates ([2]; Capsaicin post-PMA, concentration -7 (log)): 458.372 and 374.744 and 486.799 and 539.234 and 405.184 and 500.54 and 449.452 and 421.453 and 234.945 | [Ca]i response (change in fluorescence), individual replicates ([2]; Capsaicin post-PMA, concentration -7.52288 (log)): 414.324 and 425.309 and 371.472

O=C/C=C/c1ccccc1 [Cinnamaldehyde, reference compound]
[Ca]i response (change in fluorescence), individual replicates ([3]; concentration -3.52288 (log)): 579.18 and 443.895 and 314.03 and 238.126 and 505.429 and 366.901 and 547.612 and 503.571 | [Ca]i response (change in fluorescence), individual replicates ([3]; concentration -4 (log)): 512.677 and 386.358 and 182.251 and 90.233 and 462.503 and 256.186 and 470.33 | [Ca]i response (change in fluorescence), individual replicates ([3]; concentration -4.52288 (log)): 104.319 and 294.992 | [Ca]i response (change in fluorescence), individual replicates ([3]; concentration -6.52288 (log)): 14.1967 and 1.152 and 7.195 and 7.239 and 0.1872 and 2.197 and 47.8813 and 6.537
